# From PubChem BioAssay (Tox21)
# Inconclusive means that the source gave no clear call. Such entries were picked first, then a sample of the others. Where a call stands in place of a potency, no number is given. For part of these data: Where the call is inconclusive, the potency comes from a doubtful curve fit. Active and inactive are the calls of the source. Unless noted, the call rests on the fitted dose curve; in most records, active means well fitted curve in the direction sought with a large enough effect in the repeat runs; inconclusive means weak or mixed curves; inactive means no such curve, though single readings can be large; an effect the other way counts as inactive or inconclusive.
# Columns and labels:
# [1] = qHTS assay to identify small molecule HDAC inhibitors - cell viability counter screen (AID 1259365); conditions: HCT-116 viability, CellTiter-Glo ATP luminescence, 2 h; series mostly up to 92.4 µM; further: nearly all actives have a fitted effect of over 50% in size; further: potency means the concentration at half of the fitted maximal effect
# Outline: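 HCT-116 (wild type), 1,500 cells/well, overnight 37C/5% CO2; compound in DMSO 2hr; CellTiter-Glo 30min RT; luminescence read.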
# [2] = target: Acetylcholinesterase (Homo sapiens) (UniProt P22303); test: Acetylcholinesterase (AChE) small molecule antagonists: enzyme-based qHTS assay with human liver microsomes (AID 1347399; calls by dose curve; further: potency means the concentration at half of the fitted maximal effect; nearly all actives have a fitted effect of over 60% in size); conditions: Potency: qHTS inhibition; series mostly up to 115 µM
# Sequence of UniProt P22303 (P22303 whole entry, looked up): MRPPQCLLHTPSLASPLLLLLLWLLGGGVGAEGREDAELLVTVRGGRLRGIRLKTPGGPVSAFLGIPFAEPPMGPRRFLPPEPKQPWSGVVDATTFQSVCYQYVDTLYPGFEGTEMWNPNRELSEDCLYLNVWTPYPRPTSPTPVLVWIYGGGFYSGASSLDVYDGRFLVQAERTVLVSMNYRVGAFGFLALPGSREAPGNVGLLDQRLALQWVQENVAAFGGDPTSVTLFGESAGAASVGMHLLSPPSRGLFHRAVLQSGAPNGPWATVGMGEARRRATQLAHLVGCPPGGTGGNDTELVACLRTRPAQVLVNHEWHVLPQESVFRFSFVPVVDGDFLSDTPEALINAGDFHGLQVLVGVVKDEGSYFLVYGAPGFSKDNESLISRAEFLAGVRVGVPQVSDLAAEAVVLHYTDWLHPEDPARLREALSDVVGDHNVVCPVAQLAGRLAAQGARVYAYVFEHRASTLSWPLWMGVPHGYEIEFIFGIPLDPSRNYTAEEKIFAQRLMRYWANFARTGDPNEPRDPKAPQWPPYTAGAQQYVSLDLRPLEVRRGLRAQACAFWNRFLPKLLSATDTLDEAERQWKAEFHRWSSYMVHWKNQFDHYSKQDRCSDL
# Outline: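 Recombinant human AChE (50 mU/mL in the enzyme mix) and human liver microsomes (0.25 mg/mL final) were preincubated with compound and NADPH (0.25 mg/mL final) for 30 min at 37 C. Acetylthiocholine/DTNB was then added; thiocholine was read colorimetrically after 10 min at room temperature.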
# [3] = target: Acetylcholinesterase (Homo sapiens) (UniProt P22303); test: Acetylcholinesterase (AChE) small molecule antagonists: enzyme-based qHTS assay (AID 1347397; calls by dose curve; further: nearly all actives have a fitted effect of over 55% in size; further: potency means the concentration at half of the fitted maximal effect); conditions: Potency: AChE enzyme activity inhibition; outcome: AChE enzyme activity inhibition; series mostly up to 115 µM
# Outline: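 Human recombinant acetylcholinesterase; substrate acetylthiocholine; thiocholine quantified with DTNB (colorimetric). Compound preincubation 30 min RT; reaction 10 min RT.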
# [4] = qHTS RealTime-Glo MT Cell Viability Assay in HepG2 cells - 8 hour (AID 1224873); conditions: RealTime-Glo luminescence; series mostly up to 76.8 µM; further: nearly all actives have a fitted effect of over 55% in size; further: potency means the concentration at half of the fitted maximal effect
# Outline: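 HepG2 cells mixed with RealTime-Glo MT reagents (NanoLuc plus cell-permeant prosubstrate) were seeded at 600 cells/well, incubated 5 h at 37 C/5% CO2, then pinned with compounds in DMSO; nonlytic luminescence tracked viability during 40 h treatment.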
# [5] = qHTS assay to identify small molecule antagonists of the farnesoid-X-receptor (FXR) signaling pathway - cell viability counter screen (AID 743221; active means well fitted cell-killing curve with a large enough effect in the repeat runs, not every such curve was filed as active; inconclusive means weak or mixed curves, or effect the other way; inactive means no such curve, though single readings can be large or run the other way; further: potency means the concentration at half of the fitted maximal effect; nearly all actives have a fitted effect of over 50% in size); conditions: FXR-bla HEK293T viability, CellTiter-Glo luminescence, 16 h; activity change, negative = cytotoxicity: at 62.6 µM (top of the series) unless noted
# Outline: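 HEK 293T FXR-bla cells, 5 h pre-incubation; compound + CDCA 50 uM final, 16 h, 37 C; beta-lactamase FRET read first, then CellTiter-Glo luminescence, 30 min RT.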
# [6] = qHTS assay to identify small molecule agonists of the TGF-beta/Smad signaling pathway - cell viability counter screen (AID 1346829); conditions: SBE-bla HEK293T viability, CellTiter-Glo luminescence, 5 h; series mostly up to 76.8 µM; further: top concentration of the series differs between compounds; nearly all actives have a fitted effect of over 45% in size
# Outline: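 SBE-bla HEK 293T cells plated overnight, compound exposure 5 hr at 37 C. Viability read in the same wells by CellTiter-Glo luminescence after 30 min at room temperature, following the beta-lactamase read.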
# [7] = qHTS assay for small molecule agonists of the p53 signaling pathway - cell viability (AID 651633; calls by dose curve; further: nearly all actives have a fitted effect of over 30% in size; further: potency means the concentration at half of the fitted maximal effect;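 on activity change, negative = cytotoxicity: p53RE-bla HCT reporter cells with a stable beta-lactamase p53 reporter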); conditions: p53RE-bla HCT-116 viability, ATP luminescence, 16 h; series mostly up to 83.3 µM
# Outline: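 p53RE-bla cells, seeded at 4,000 per well and rested 5 h at 37 C/5% CO2, received compounds in DMSO for 16 h at 37 C. CellTiter-Glo was then added, and luminescence was read after 30 min at room temperature to gauge cytotoxicity.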
# [8] = target: Androgen receptor (Homo sapiens) (UniProt P10275); test: qHTS assay to identify small molecule antagonists of the androgen receptor (AR) signaling pathway using the MDA cell line (AID 743042; further: potency means the concentration at half of the fitted maximal effect; nearly all actives have a fitted effect of over 55% in size); conditions: MDA-kb2 AR-luc, MMTV luciferase, R1881 antagonist, 16 h; series mostly up to 70.3 µM
# Sequence of UniProt P10275 (P10275 whole entry, looked up): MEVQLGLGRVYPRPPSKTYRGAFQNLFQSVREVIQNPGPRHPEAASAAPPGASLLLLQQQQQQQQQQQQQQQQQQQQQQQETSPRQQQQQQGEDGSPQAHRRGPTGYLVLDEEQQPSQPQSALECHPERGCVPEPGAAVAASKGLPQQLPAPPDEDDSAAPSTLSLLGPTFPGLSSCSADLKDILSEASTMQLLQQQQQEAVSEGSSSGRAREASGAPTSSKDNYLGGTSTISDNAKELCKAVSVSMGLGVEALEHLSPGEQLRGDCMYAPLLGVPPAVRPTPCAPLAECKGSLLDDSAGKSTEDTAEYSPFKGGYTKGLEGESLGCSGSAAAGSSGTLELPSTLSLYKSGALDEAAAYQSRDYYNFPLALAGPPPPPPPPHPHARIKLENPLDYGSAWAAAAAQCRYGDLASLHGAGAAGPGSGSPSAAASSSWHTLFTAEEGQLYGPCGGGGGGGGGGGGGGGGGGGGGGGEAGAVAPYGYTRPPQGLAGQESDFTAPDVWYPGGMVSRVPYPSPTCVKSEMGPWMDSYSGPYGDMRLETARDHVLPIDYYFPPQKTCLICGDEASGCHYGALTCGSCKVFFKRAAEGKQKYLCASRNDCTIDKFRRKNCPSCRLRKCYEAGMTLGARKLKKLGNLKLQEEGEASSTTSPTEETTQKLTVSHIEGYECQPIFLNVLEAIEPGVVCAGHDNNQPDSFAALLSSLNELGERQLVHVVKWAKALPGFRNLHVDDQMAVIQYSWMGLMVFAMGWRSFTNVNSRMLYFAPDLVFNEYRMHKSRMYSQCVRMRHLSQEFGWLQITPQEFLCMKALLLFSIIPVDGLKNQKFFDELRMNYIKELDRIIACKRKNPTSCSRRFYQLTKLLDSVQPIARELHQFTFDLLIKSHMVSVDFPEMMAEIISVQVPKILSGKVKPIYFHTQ
# Outline: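 MDA-kb2 cells (human breast carcinoma, stably carrying an MMTV-luciferase reporter responsive to AR and GR) were plated at 3,000 cells/well and preincubated 5 hr at 37C, then given compound plus R1881 agonist for 16 h. ONE-Glo luminescence was read.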
# [9] = target: Nuclear receptor subfamily 1 group I member 2 (Rattus norvegicus) (UniProt Q9R1A7); test: Rat pregnane X receptor (rPXR) activation by small molecules, qHTS assay (AID 1346983); conditions: rPXR luciferase reporter cells, One-Glo luminescence, 24 h; max activation: active compounds read high; further: nearly all actives have a fitted effect of over 20% in size; further: potency means the concentration at half of the fitted maximal effect
# Sequence of UniProt Q9R1A7 (Q9R1A7 whole entry, looked up): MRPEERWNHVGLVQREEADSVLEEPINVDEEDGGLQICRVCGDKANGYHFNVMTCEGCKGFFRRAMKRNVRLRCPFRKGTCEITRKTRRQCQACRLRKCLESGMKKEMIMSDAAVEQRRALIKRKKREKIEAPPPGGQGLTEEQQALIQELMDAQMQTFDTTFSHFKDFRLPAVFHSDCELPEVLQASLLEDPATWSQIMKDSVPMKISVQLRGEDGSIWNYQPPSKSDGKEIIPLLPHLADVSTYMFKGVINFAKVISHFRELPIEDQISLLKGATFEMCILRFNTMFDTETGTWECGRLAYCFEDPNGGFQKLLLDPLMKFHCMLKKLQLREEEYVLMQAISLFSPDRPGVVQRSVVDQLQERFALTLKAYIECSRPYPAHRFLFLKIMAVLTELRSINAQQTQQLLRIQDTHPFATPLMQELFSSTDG
# Outline: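 Cell-based rPXR luciferase reporter assay, 2,000 cells per well, rested 5hr at 37 C before compound addition in DMSO, then 24 hr at 37 C. One-Glo reagent was added and luminescence read after 30 min at room temperature.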
# [10] = A CellTox Green Cytotoxicity Assay to monitor cytotoxicity in HEK293 cells - 0 hour (AID 1224869); conditions: CellTox Green fluorescence; series mostly up to 76.8 µM; further: nearly all actives have a fitted effect of over 50% in size; further: potency means the concentration at half of the fitted maximal effect
# Outline: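 Nonlytic real-time cytotoxicity: HEK293 + CellTox Green reagent plated, 5 h preincubation, pintool compound addition (23 nL in DMSO), 37 C for 40 h, fluorescence measured at successive time points.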
# [11] = target: Nuclear receptor subfamily 1 group I member 3 (Homo sapiens) (UniProt Q14994); test: qHTS assay to identify small molecule antagonists of the constitutive androstane receptor (CAR) signaling pathway (AID 1224838); conditions: HepG2-CYP2B6-hCAR luciferase, CITCO-stimulated, 24 h; series mostly up to 92.4 µM;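 further: HepG2 cells stably expressing hCAR with CYP2B6 luciferase reporter stimulated by CITCO; nearly all actives have a fitted effect of over 40% in size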; further: potency means the concentration at half of the fitted maximal effect
# Sequence of UniProt Q14994 (Q14994 whole entry, looked up): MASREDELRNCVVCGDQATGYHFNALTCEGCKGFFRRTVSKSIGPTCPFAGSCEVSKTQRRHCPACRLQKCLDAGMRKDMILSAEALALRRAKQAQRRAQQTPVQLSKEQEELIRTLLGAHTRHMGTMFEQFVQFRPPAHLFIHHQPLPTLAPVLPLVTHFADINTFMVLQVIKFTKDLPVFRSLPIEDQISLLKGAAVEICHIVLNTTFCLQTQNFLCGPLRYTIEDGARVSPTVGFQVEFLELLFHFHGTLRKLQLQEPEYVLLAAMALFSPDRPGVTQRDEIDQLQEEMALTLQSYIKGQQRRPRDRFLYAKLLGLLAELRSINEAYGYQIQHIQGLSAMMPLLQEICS
# Outline: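 HepG2-CYP2B6-hCAR cells; 4 h pre-incubation; cpd (15 conc) + CITCO 50 nM final; 24 h, 37 C/5% CO2; ONE-Glo, luminescence.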
# [12] = qHTS assay to test for compound auto fluorescence at 535 nm (green) in HEK293 cells (AID 720680); conditions: green autofluorescence 485/535 nm; at 46 µM (top of the series)
# [13] = qHTS assay to identify small molecule agonists of the estrogen related receptor signaling pathway with the pleiotropic PPARgamma coactivator (PGC) (AID 1224823); conditions: ERR/PGC reporter cell line, luciferase agonist mode; series mostly up to 46.1 µM
# Outline: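 Steps: plate PGC/ERR cells at 2,000 cells/well; incubate 6 h, 37 C/5% CO2; pin-transfer compounds (DMSO); incubate 18 h, 37 C; add One-Glo; 30 min RT; read luminescence.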
# [14] = qHTS assay to identify small molecule agonists of the hypoxia (HIF-1) signaling pathway (AID 1224846; active means well fitted activation curve with a large enough effect in the signal ratio in the repeat runs, not every such curve was filed as active; inconclusive means weak or mixed curves; the % refers to the signal ratio); conditions: HRE-bla ME-180 cells, beta-lactamase ratio, 17 h; activation: at 76.8 µM (top of the series) unless noted
# Outline: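 Cell line: CellSensor HRE-bla ME-180; 2,000 cells/well; 0.5% dialyzed FBS; 5 h preincubation; DMSO compound pin transfer; 17 h, 37C, 5% CO2; CCF4-AM added; bla FRET signal scored for activation.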
# [15] = target: Androgen receptor (Homo sapiens) (UniProt P10275); test: qHTS assay to identify small molecule antagonists of the androgen receptor (AR) signaling pathway using the MDA cell line in the presence of 0.5 nM R1881 (AID 1259243); conditions: MDA-kb2 MMTV-luciferase, R1881 0.5 nM, 16 h; series mostly up to 92.4 µM; further: nearly all actives have a fitted effect of over 50% in size; further: potency means the concentration at half of the fitted maximal effect
# Outline: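 Luciferase luminescence is the read-out: compounds are tested for suppressing 0.5 nM R1881-driven MMTV reporter activity in MDA-kb2 cells after 16 hr at 37C.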
# [16] = Caspase-3/7 induction in HepG2 cells by small molecules, qHTS assay (AID 1346978); conditions: HepG2 caspase-3/7 activation, Caspase-Glo luminescence, 17 h; series mostly up to 92.4 µM; further: nearly all actives have a fitted effect of over 15% in size
# Outline: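 Wild-type HepG2 cells (2,000/well) were settled 5 h at 37 C, 5% CO2, then exposed to compounds in DMSO for 17 h. Caspase-3/7 activity was read by luminescence 30 min after adding Caspase-Glo 3/7 reagent at room temperature.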
# [17] = qHTS assay to test for compound auto fluorescence at 460 nm (blue) in HepG2 cells (AID 720687); conditions: autofluorescence 405/460 nm, 1 h; series mostly up to 91.3 µM
# Outline: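 Cells (2,000/well in MEM with 10% FBS) attached overnight at 37 C, then were exposed to compound or DMSO for 1 hr at 37 C, 5% CO2. Fluorescence read at Ex/Em 405/460 nm, expressed as triamterene-equivalent signal.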
# [18] = target: Thyrotropin-releasing hormone receptor (Homo sapiens) (UniProt P34981); test: qHTS assay to identify small molecule agonists of the thyrotropin-releasing hormone receptor (TRHR) signaling pathway (AID 1346891; calls by dose curve;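 further: HEK293 cells expressing TRHR with calcium dye readout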); conditions: TRHR-HEK293 calcium fluorescence, agonist mode; at 57.6 µM (top of the series)
# Sequence of UniProt P34981 (P34981 whole entry, looked up): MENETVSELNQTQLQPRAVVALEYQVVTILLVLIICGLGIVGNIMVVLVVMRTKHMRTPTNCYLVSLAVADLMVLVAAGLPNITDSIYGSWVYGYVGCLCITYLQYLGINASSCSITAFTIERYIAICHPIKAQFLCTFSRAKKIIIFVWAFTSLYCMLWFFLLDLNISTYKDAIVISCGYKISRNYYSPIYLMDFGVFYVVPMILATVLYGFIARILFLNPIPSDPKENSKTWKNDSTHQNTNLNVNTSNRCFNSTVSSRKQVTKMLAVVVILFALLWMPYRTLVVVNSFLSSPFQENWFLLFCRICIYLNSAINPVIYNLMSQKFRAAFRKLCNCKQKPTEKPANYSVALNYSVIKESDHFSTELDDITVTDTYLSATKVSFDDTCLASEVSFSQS
# Outline: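 HEK293/TRHR cells, 1500 per well, 18 h 37 °C; Ca dye 2 h 37 °C; pin-tool compound addition (agonist mode); kinetic fluorescence 3 min, 1 s reads; 15 concentrations, triplicate.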
# [19] = qHTS assay to identify small molecule agonists or antagonists of the thyroid stimulating hormone receptor (TSHR) signaling pathway - wild type cell line counter screen (AID 1259384; calls by dose curve; further: potency means the concentration at half of the fitted maximal effect); conditions: HEK293 wild type, cAMP HTRF counter-screen
# Outline: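 Wild-type HEK293 cells were plated 18 h at 37 C/5% CO2, pin-dosed with compound plus Ro20-1724 medium, held 30 min at room temperature, then given cAMP-d2 and anti-cAMP-cryptate; fluorescence was read after 1 h. Fifteen concentrations, triplicate.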
# Tags describe the fitted curve by direction and shape.
smiles,measurement,setting,value
S=c1[nH]c2ccccc2[nH]1,Potency,[1],"inconclusive: 54.6 µM [cytotoxic, partial curve, poor fit]"
same,Potency,[2],"inconclusive: 89.6 µM [falling, partial curve, poor fit]"
CCc1cccc(C)c1N,Potency,[3],"inconclusive: 68.8 µM [falling, partial curve, poor fit]"
CNC(=O)O/N=C/C(C)(C)SC,Potency,[4],inactive
CC[C@H](O)C(C[C@H](C)N(C)C)(c1ccccc1)c1ccccc1,Potency,[5],"inconclusive: 15.7 µM [falling, full curve]"
CN(CCCC(O)c1cccnc1)N=O (stereo unspecified),Potency,[3],inactive
CCCCN(CCCC)C(=S)[S-].CCCCN(CCCC)C(=S)[S-].[Ni+2],Potency,[6],inactive
CN[C@@H]1C[C@@H](c2ccc(Cl)c(Cl)c2)c2ccccc21,Potency,[7],"inconclusive: 29.8 µM [cytotoxic, single point]"
same,Potency,[8],"inconclusive: 23.7 µM [inhibitor, partial curve]"
same,Potency,[9],"inconclusive: 25.1 µM [activator, partial curve, poor fit]"
CCOC(=O)c1ccccc1S(=O)(=O)NC(=O)Nc1nc(Cl)cc(OC)n1,Potency,[10],"inconclusive: 54.9 µM [activator, single point]"
NC1(c2ccccc2)CCCCC1,Potency,[11],"inconclusive: 42.9 µM [inhibitor, partial curve]"
COc1ccccc1N1CCNCC1,"fluorescence, % of fluorescein",[12],inactive: 0.0947%
NC(N)=Nc1ccc2[nH]c3c(c2c1)C[C@@]1(O)[C@H]2Cc4ccc(O)c5c4[C@@]1(CCN2CC1CC1)[C@H]3O5,Potency,[13],inactive
CCCC[N+]1(C)CCCC1 (tested in a mixture with another compound),Potency,[14],inactive
C=CCOC(=O)C(C)(C)OC(=O)c1cc(-n2c(=O)cc(C(F)(F)F)n(C)c2=O)ccc1Cl,Potency,[5],"inconclusive: 53.9 µM [rising, partial curve, poor fit]"
O=C(CCCN1CCC(n2c(=O)[nH]c3ccccc32)CC1)c1ccc(F)cc1,Potency,[15],"inconclusive: 23.7 µM [inhibitor, partial curve]"
COc1ncc(F)c2nc(S(=O)(=O)Nc3c(F)cccc3F)nn12,Potency,[15],inactive
same,Potency,[16],inactive
Cc1nc(N(C)C)nc(OC(=O)N(C)C)c1C,Potency,[7],inactive
same,Potency,[17],inactive
S=C=S,Potency,[16],inactive
same,max activation,[9],inactive: 3.06%
OCCSCSCCO,Potency,[1],inactive
CCCCn1cc[n+](C)c1.[Cl][Fe-]([Cl])([Cl])[Cl],Potency,[16],inactive
COc1cc(OC)nc(NC(=O)NS(=O)(=O)c2ncccc2C(=O)N(C)C)n1,Potency,[7],inactive
same,activation,[18],inactive: -0.033%
COP(=S)(OC)Oc1ccc(S(N)(=O)=O)cc1,Potency,[4],"inconclusive: 26.8 µM [falling, single point]"
Clc1cccc(N2CCNCC2)c1,Potency,[11],inactive
C[C@H](N)[C@H](O)c1ccc(O)c(O)c1,Potency,[10],active: 16.9 µM
CC(C)(COCC1CO1)COCC1CO1 (stereo unspecified),Potency,[10],inactive
CC(C)(C)NC[C@H](O)c1ccc(O)cc1Cl,cAMP activity change,"[19]; at 42.5 µM (top of the series), active compounds read high",inconclusive: 22.6%
O=[N+]([O-])c1cc(Cl)ccc1Cl,Potency,[11],inactive
Cc1coc2c1CCC(C)C2 (stereo unspecified),Potency,[14],inactive
COc1ccc([N+](=O)[O-])cc1O,Potency,[6],inactive
CNCC(=O)c1ccc(O)c(O)c1,Potency,[19],active: 4.22 µM
